# The other results are listed elsewhere or left out. At the low end of the ranking the order means little. The protein was read in a cell extract, so binding may be indirect.
# Target: T1, HNF4alpha8 (COS-7 nuclear extract) (UniProt P41235-5)
# T1 sequence: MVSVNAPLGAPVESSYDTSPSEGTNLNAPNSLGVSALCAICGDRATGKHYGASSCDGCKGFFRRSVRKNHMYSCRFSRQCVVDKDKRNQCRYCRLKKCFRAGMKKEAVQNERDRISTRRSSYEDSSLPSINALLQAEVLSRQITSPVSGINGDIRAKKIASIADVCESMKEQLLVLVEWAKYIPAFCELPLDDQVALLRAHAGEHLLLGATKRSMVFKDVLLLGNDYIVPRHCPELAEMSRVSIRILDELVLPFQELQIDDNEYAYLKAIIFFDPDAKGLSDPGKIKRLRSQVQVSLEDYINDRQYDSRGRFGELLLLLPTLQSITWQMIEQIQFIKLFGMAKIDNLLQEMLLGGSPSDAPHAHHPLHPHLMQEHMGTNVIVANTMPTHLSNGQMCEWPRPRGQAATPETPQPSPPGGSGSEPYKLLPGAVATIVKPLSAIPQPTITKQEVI
# Experiment: protein-binding microarray
# Settings: COS-7 nuclear extract on double-stranded Agilent 4x180k PBM; binding buffer, salt, pH and temperature not given; high values mean tight binding; double strand, one strand shown; sequences stand for … in …GCCTAGGGAGATTAGAGTATCGGTCGA
row,Sequence,binding signal (log2 normalized intensity)
1,CTCTTTCAACTTTCAACATTTAACTTAACC,0.426
2,CGCAGCAAGTTACACAAGTAGAATGAAAGC,-1.31
3,GAGGGGCCTGTCAGGCCCAGAAACACTGAA,-1.24
4,GCCTCCCTGTGGGGGAGGTGCAGAGAGGGG,-1.3
5,CTTCCCTGGTCCTCAGGCCTTTGGACCCAG,6
6,CTTCTCAACTAGGCCTGAAATTTGGCCTGC,1.97
7,TGAATTCCAAAGGTTATTTTCTTTAAGCCT,2.88
8,GCAGATGATCAAGAGGCTCTTCAATGCATT,-1.32
9,GTGAGTCAAGCACTTCTCACATCACGTCTC,-1.34
10,CAAATGAAAAGAATATCTCAGCAGCCTGGC,-1.25
11,GAAATTCTCAAAAGTTTTTCCCTTCTGTTA,-0.118
12,GGTCACCTGGAAGCAGAAGGAGGAGGAGGT,-1.41
13,CTGGCATAGCATGCCACGATGATTAGCTGA,-1.22
14,CACAGCTGGACTTTGGCTGCAAAATTTGAA,3.88
15,GCAGTGAGAACAGGTTCATTCTTTAAGTGT,1
16,AGAATTCCTTCTTGCTTAGGATAGGGTCAG,2.52
17,GAGGACAGTTGTGTTTGTTGACCACTCTTT,1.79
18,TAAGATTAGGTGCTGAGCAACTATAAAACA,-1.19
19,CCAGTTTGCATTTTCATGGACAGAGATTAT,1.21
20,CCTTCAAGGATTAGCAGATAAATCTAGGCC,-0.973
21,AACTTGTGTTCAGAGCTTGCTGCATTCCCC,1.26
22,CAACTAGGGCAAAGGTTAGCTTGGACAGAG,3.68
23,GATATCCATCATGTTTATCTTCTGCTTTCA,-0.726
24,TGTGTAACATTCCACAGGAACCAAAGTCTA,2.55
25,TTCTCCACTGGGAAGTAGAAGAAAGCTTCA,-1.29

row,Sequence,binding signal (log2 normalized intensity)
1,ACATCAGCTGAGCAGAGAGGACCCTGTGAT,1.76
2,GTTGGAATTTGGTCACAGAAAGTGACGTGC,1.61
3,TGTGCTCATGACAAAGAAATGTAACCTTTG,4.55
4,TTCCTGCCTGGTCCGCCCTTCCCCGCTCTC,2.24
5,GGATTTGGAGATCAGAGTCCAGCTGTGCCC,3.13
6,TTTAACGGTCTGCCCTCTTGTCCTTCCCCT,3.51
7,GTAAGGAAGACAAGACAAGGAAGTTAAGAG,-1.28
8,AAATACAAGGACACTGAAAGGCATTCTGCC,-1.19
9,GCTGTTCCTTTCCTGCTGTTCCTTCAACAC,0.806
10,AACCCATCCACCCATCCAAAGGTCAGCAAT,4.75
11,ACTGCCCGCTGGCCTCCCCATCCTCATGAC,2.93
12,AACAAACATGAGGGACTGGGAAGAGAAGGT,-1.4
13,TCCAGCCCTGTCTCTCAGGTGTAACAGTTG,0.88
14,GTCAATGGTAGAAAAGGAAATATCTTCGTA,-1.31
15,GGGGTCAGCAAAAATAGCCAAAATAAAGCA,-1.29
16,TTCCTGCTACAGAGCTCAGATTTCAAGGTG,-0.838
17,TGAACTAACAATTCTTTCTGATAAGAGCAT,-1.28
18,TCCCGTCCCTGCCAAAGGTCAGAGTTGAAC,4.3
19,TTTAGCTTTAGTTCAGGGAAGAGGGCACTC,0.987
20,CTCAAATCTAGCCAATGATGCTAGCCAATA,-1.36
21,AGGGATTGTTTAGGTACAAAGTCCATTGGA,8.46
22,CTTGACTTTGGACTTTCAAAAGTTAAGGTC,3.98
23,GAATTTTTCTGTATAAGACAACCTTTGTTC,5.33
24,TCAATGGCCCCAGTGCACGTGCATGAGGCC,-0.475
25,CACCTCCCTCAGAGCTCAGATGAACTTTGC,6.84

row,Sequence,binding signal (log2 normalized intensity)
1,ACTTTGGACTTGGGACTTTCGAGTTAATGC,4.67
2,AAAGGCTGTCACACTTGCCCTTTGCCCTCA,8.84
3,GTTGCAGCATTGTTGGGATTAAGGAGAAGG,-1.27
4,CAGATAGATGGTCAGTGAACTGTGGTTGAC,1.58
5,ACAATTGTCCCCAAGATTGAGGCCAGCAAA,-0.647
6,TCATTGCCTCTGGGCTTTGATGGACATTGC,3.92
7,CTCAATCTTTGCCCTCTTGGTATCAGCTTT,2.54
8,CAAGGGGGTGGTGAAATGGGGGAAGGGCTG,-1.4
9,TAAGCCACAGACAAATATTTGCTGTTACTC,-1.26
10,AGTCTGTGGAGACACTGCCAGTGTCTCAGG,0.203
11,CCAGGGACTTTGAACACTTCTTTGTTACTT,2.75
12,ATCTGAGTGTCAAAAACAATACCAGGAGCT,-1.38
13,GTTCTAGCCCTGGTGAGTCAGTTCCCCTGC,1.42
14,GCCACGGGAAAACCTGACTGCGCTCCCAGA,-1.42
15,CACAAATTGGAGAGCATCTTGGACTTGGGA,3.16
16,CCCAACCAAAAACAAAACTGGTCATACAGC,-1.32
17,CAAGATAAGATACGAAGGGTTTAAAGGGCA,3.36
18,GGGGATTCTTTCTAAAGTGACTTAGCAGGA,0.173
19,ACTTTTGCAATGTTTCCAAACCCCTCGGGA,1.59
20,AGTCAGGTACCTGCTTCTGCCCCAGTTAAC,3.08
21,AAGCATTTGGAGATTGCCACCTTGGTGAGA,0.128
22,TGTTTAACAGAGATTTGCAGCTCAAAGTGC,2.22
23,CCCAAGTAATAGCCGTTTCTGTCCAGAGTT,0.357

# Reference: publication PMC10726135
